The source of these data is the RNAGym collection of RNA variant scans (doi:10.1101/gad.245936.114).

The labels stand for the following.
B1: tRNA (parent)
chain: CUCUCGGUAGCCAAGUUGGUUUAAGGCGCAAGACUUUAAUUUAUCACUACGAAAUCUUGAGAUCGGGCGUUCGACUCGCCCCCGGGAGAUUUUUUCCUCGAGCAA

Variants at the floor of the assay are shown more often than the library holds them.

The variants in the data set derive from B1. Description: nonsense suppression (GFP-seq) (ratio to wild type); higher = more function; SUP4oc tRNA, yeast GFP reporter sort-seq. The gist of the method: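 Raffinose/galactose medium with 80 mg/L adenine was used to grow yeast carrying genome-integrated tRNA variants (~3% random-mutation library), RFP, and a galactose-driven GFP ochre reporter. Cells went into GFP/RFP bins, which were Illumina-sequenced, and variants with ≥100 reads and ≥30 cells were scored. Nonsense suppression (GFPSEQ) is the per-bin median GFP/RFP weighted by estimated cell share and expressed relative to the unmutated parent tRNA.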
Take CUCUCGGUAUCCAAGUUGGUCUAAGGCGCAAGACUUUAAUUUAUCACUACGAAAUCUUGAGAUCGGGCGUUCGACUCGCCCCCGGGAGAUUUUUUCCUCGAGCAA [G10U U21C]: the nonsense suppression was no more than 0.026. As for CUCUCGGUUGCCAAGUUGGUUUAAGGCGCAAGACUUUAAUUUAUCACUACGAAAUCUUGAGAUCGGGCGUUCAACUCGCCCCCGGGAGAUUUUUUCCUCGAGCAA [A9U G73A], the nonsense suppression is 0.0814. As to CUCUCGGUAGCCCAGUUGGUUUAAGGCGCAAGACUUUAAUUUAUCACUACGAAAUCUUGAGAUCGGGCGUUCGACACGCCCCCGGGAGAUUUUUUCCUCGAGCAA [A13C U76A], the nonsense suppression is 0.282. As for CUCUCGGUAACCAAGCUGGUUUAAGGCGCAAGACUUUAAUUUAUCACUACGAAAUCUUGAGAUCGGGCGUUCGACUCGGCCCCGGGAGAUUUUUUCCUCGAGCAA [G10A U16C C79G], the nonsense suppression was no more than 0.026. Take CUCUCGGUAGCCAAGUUGGUUUAAGGCACAAGACUUUAAUUUAUCACUACGAAAUCUUGAGAUCGGGCGUUCGCCUCGGCCCCGGGAAAUUUUUUCCUCGAGCAA [G28A A74C C79G G88A]: the nonsense suppression is no more than 0.026. The result for CUCUCGGUAGCCAAGUUGGUUUAAGGCGCAAGACUUUAAUUUAUCACUACGAAAUCUUGAGAUCGGGCGUUCGACUCGCCCUUGGGAGAUUUUUUCCUCGAGCAA [C82U C83U] reads no more than 0.026; that for CUUUCGGUGGCCAAGUUGGUUUAGGGCGCAAGACUUUAAUUUAUCACUACGAAAUCUUGAGAUCCGGCGUUCGACUCGCCCCCGGGAGAUUUUUUCCUCGAGCAA [C3U A9G A24G G65C], no more than 0.026. For the variant AUCUCGGUAGCCAAGUUGGUUUAAGGCGCAAGACUUUAAUUUAUCACUACGAAAUCUUGAGAUCAGGCGUUCGACUCGCCCCCGGGAGAUUUUUUCCUCGAGCAA [C1A G65A], the nonsense suppression is no more than 0.026.

As to CUCUGGGCAGCCACGUUGGUUUAAGGCGCAAGACUUUAAUUUAUCACUACGAAAUCUUGAGAUCGGGCGUUUGACUCGCCCCCGGGAGAUUUUUUCCUCGAGCAA [C5G U8C A14C C72U], the nonsense suppression is no more than 0.026. For the variant CUCUCGGUAGCCAAGUUGGUUUAAGGCGCAAGACUUUAAUUUAUCACUACGAAAUCUUGAGAUCGGGCGUUCGAUUCGCCCCCGUGAGAUUUUUUCCUCGAGCAA [C75U G85U], the nonsense suppression turned out to be 1.12. To GUCUCGGUAGCCAAGGUGGUUUAAGGCGCAAGACUUUAAUUUAUCACUACGAAAUCUUGAGAUCGGGCCUUCGACUCGCCCCCAGGAGAUUUUUUCCUCGAGCAA [C1G U16G G69C G84A] belongs no more than 0.026. As for AUCUCGGUAGUUAUGUUGGUUUAAGGCGCAAGACUUUAAUUUAUCACUACGAAAUCUUGAGUUCGGGCGUUCGACUCGCCCCCGGGAGAUUUUUUCCUCGAGCAA [C1A C11U C12U A14U A62U], the nonsense suppression was no more than 0.026. To CUCUCGGUAGCCAAGUUGGUUUAAGGAGCAAGACUUUAAUUUAUCACUACGAAAUCUUGACAUCGGGCGUUCGACUCGCCCCCGGGAGAUUUUUUCCUCGAGCAA [C27A G61C] belongs no more than 0.026; to CACUCCGUAGCCAAGUUGGUUUAAGGCGCAAGAAUUUAAUUUAUCACUACGAAAUCUUGAGACCGGGCGUUCGACUCGCCCCCGGGAGAUUUUUUCCUCGAGCAA [U2A G6C C34A U63C], no more than 0.026.

For the variant AUCUCGGUAGCCAAGUUGGUUUAAGGCGCAAGACUUUAAUUUAUCACUACGAAAUCUUGAGAUCGGGCGUUAGACUCGCCCCCGGGAGAUUUUUUCCUCGAGCAA [C1A C72A], the nonsense suppression is no more than 0.026. Turning to CUCUCGGUAGCCACGUUGGUUUAAGGUGCAAGACUUUAAUUUAUCACUACGAAAUCUUGAGAUCGGGCGUUCGACUCGCCCCCGGGAGAUUUUUUCCUCGAGCAA [A14C C27U], the nonsense suppression was no more than 0.026. To CUUUCGGUAGCCAAGUUGGUUUAAGGCGCAAGACUUUAAUUUAUCACUACGAAAUCUUGAGAUCGUGCGUUCGACUCGCCCCCGGGAGAUUUUUUCCUCGAGCAA [C3U G66U] belongs no more than 0.026; to CUCUCGGAAGCCAAGUUGGUUUAAGGCGCAAGACUUUAAUUUAUCACUACGAAAUCUUGAGAUCGGGCGUUCGACGAGCCCCCGGGAAAUUUUUUCCUCGAGCAA [U8A U76G C77A G88A], no more than 0.026; to CUAUCGGUAGCAAAGUUGGUUUAAGGAGAAAGACUUUAAUUUAUCACUACGAAAUCUUGAAAUCGUGCGUUCGACUCGCCCCCCGGAGUUUUUUUCCUCGAGCAA [C3A C12A C27A C29A G61A G66U G84C A89U], no more than 0.026.

On to CUCUCGGUAGCCAAGUUGGUGUAUGGCGCAAGACUUUAAUUUAUCACUACGAAAUCUUGAGAUCGGGCGUUCGACUCGCCCCCGGGAGAUUUUUUCCUCGAGCAA [U21G A24U], for which the nonsense suppression was 0.0683. Take CGCUCGGUAGCCAAGUUGGUUUAAGGCGCAAGACUUUAAUUUAUCACUACGAAAUCUUGAGAUCUGGCGUUCGACUAGCCCCCGGGAGAUUUUUUCCUCGAGCAA [U2G G65U C77A]: the nonsense suppression was no more than 0.026. For the variant CUCUCGGAACCCAAGUUGGUUUCAGGCGCAAGACUUUAAUUUAUCACUACGAAAUCUUGAGAUCGGGCGUUCGACUCGCCCCCGGGAGAUUUUUUCCUCGAGCAA [U8A G10C A23C], the nonsense suppression was no more than 0.026.

With CUCUCGUUAGCCAAGUAGGUUUAAGGCGCAAGACUUUAAUUUAUCACUACGAAAUCUUGAGAUAGGCCGUUCGACUCGCCCCCGGGAGAUUUUUUCCUCGAGCAA [G7U U17A C64A G67C], the nonsense suppression was no more than 0.026.

On to CUCUCGGUAGCCAAGUUGGUUUAAGGCGCAAGACUUUAAUUUAUCACUACGAAAGCUUGAGAUCGGGCGUUCGACUCGCCCCCGGGGGAUUUUUUCCUCGAGCAA [U55G A87G], for which the nonsense suppression was no more than 0.026.

CUCUCGGUAGCCAAGUUGGUUUAAAGCGCAAGACUUUAAUUUAUCACUACGAAAUCUUUAUUUCGGGCGUUCGACUCGCCCCCGGGAGAUUUUUUCCUCGAGCAA [G25A G59U G61U A62U]: the nonsense suppression is no more than 0.026. The result for CUCUCGGUAGCAAAGUUGGUUUAAGGCGCAACACUUUAAUUUAUCACUACGAAAUCGUGAGAUCGGGCGUUCGACUCGCCCCCGGGAGAUUUUUUCCUCGAGCAA [C12A G32C U57G] reads no more than 0.026; that for CUCUCGGUAGCCAAGUUGGUUUAAGGCGCAAGACUUUAAUUUAUCACUACGAAAUCUUGAGUUCCGGCGUUCGACUCGCCCCCGGGAGAUUUUUUCCUCGAGCAA [A62U G65C], no more than 0.026.
